Consider 3 molecules from PMC2644682.

Sequences of proteins named here, by UniProt entry; tags and fusion partners are left off. Residues count along the entry.
UniProt Q969L2: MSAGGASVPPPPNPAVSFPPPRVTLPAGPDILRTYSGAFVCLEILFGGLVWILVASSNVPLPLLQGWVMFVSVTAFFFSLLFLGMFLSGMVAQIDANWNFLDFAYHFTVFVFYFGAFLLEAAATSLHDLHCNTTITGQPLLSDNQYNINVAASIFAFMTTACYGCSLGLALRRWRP
UniProt P15941, residues 24-1255: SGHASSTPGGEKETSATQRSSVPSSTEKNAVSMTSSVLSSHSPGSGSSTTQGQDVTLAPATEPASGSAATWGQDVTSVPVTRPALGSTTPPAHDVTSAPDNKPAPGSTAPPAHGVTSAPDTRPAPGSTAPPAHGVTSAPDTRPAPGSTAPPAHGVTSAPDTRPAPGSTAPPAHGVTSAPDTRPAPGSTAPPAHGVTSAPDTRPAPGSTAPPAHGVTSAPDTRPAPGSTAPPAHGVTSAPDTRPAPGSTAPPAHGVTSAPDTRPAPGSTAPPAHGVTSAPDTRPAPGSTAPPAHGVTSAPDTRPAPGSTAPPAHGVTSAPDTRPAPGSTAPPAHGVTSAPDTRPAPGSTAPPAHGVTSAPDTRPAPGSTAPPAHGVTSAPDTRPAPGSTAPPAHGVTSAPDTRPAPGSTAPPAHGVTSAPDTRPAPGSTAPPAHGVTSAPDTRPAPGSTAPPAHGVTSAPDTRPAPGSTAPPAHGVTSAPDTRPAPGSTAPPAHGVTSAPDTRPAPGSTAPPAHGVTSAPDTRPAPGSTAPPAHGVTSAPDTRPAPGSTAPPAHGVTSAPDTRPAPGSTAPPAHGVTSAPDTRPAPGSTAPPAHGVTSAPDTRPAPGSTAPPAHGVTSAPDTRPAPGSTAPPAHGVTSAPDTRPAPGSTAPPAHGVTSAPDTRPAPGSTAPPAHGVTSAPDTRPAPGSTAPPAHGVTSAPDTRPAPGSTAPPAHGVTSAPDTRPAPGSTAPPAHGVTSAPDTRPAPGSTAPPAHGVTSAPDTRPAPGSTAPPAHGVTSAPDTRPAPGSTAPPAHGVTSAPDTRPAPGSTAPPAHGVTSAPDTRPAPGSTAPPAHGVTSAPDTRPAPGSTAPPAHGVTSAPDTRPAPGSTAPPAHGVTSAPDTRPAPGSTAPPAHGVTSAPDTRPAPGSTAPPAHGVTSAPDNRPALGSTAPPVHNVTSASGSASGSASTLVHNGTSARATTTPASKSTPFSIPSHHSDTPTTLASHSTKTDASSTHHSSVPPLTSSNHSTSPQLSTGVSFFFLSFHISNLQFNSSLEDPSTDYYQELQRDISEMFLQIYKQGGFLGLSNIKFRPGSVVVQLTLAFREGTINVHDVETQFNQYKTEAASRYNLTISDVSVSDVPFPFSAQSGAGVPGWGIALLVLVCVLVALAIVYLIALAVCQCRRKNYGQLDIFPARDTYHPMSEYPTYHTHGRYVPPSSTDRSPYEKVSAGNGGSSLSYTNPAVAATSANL

For assay [1], the target named is MAL2, endogenous in MCF-7 and MDA-MB-435 cells (human (endogenous in MCF-7 and MDA-MB-435)) (UniProt Q969L2). Description: co-IP; MCF-7 cells and MUC1-transfected MDA-MB-435 cells; data not shown.
Assay [2] concerns the target Myc-tagged MAL2 (pCR3.1/Myc-MAL2) in MCF-10A/Myc-MAL2 cells (human) (UniProt Q969L2). Description: co-IP; pooled Triton X-100-soluble sucrose gradient fractions (5–8 and 9–12) of MCF-10A/Myc-MAL2 cells extracted with 1% Triton X-100 at 4°C; MAL2 antisera, blot with MUC1 monoclonal antibody.
Assay [3] has the same target. Put plainly: co-IP; total lysate of MCF-10A/Myc-MAL2 cells; BC2 with protein G-agarose, c-Myc or rabbit MAL2 antisera with protein A-Sepharose, 4°C, 16 h; lysis buffer 10 mM Tris with 1 mg/ml saponin for MAL2 and D52, SDS lysis buffer for MAL2 and MUC1; Western blot. On the technique in general: A western blot detects proteins with antibodies after separation by electrophoresis.

Assay [4] shares this target. Description: condition: only pooled Triton X-100-insoluble fractions 1–4 (which include lipid rafts); co-IP; pooled sucrose gradient fractions 1–4 (Triton X-100-insoluble, include lipid rafts) of MCF-10A/Myc-MAL2 cells extracted with 1% Triton X-100 at 4°C; MAL2 antisera, blot with MUC1 monoclonal antibody.
For assay [5], the target named is MUC1, endogenous in breast cell lines (human (endogenous in MCF-10A and MCF-7)) (UniProt P15941). Description: co-IP; total lysate of MCF-10A/Myc-MAL2 cells; BC2 with protein G-agarose, c-Myc or rabbit MAL2 antisera with protein A-Sepharose, 4°C, 16 h; lysis buffer 10 mM Tris with 1 mg/ml saponin for MAL2 and D52, SDS lysis buffer for MAL2 and MUC1; Western blot.

These are yes or no findings as the source states them, for the method shown. In cells and extracts the contact can be indirect. Some entries that bind do so weakly or less than the wild type. For part of these data: Sequences can lack the tags named with a protein.

On to “MUC1, endogenous in breast cell lines (from UniProt P15941 24-1255)”, for which the binding result in assay [1] is given as “binds”; in assay [2], “binds”; in assay [3] it was “binds”; in assay [4], “no binding”.
On to “Myc-tagged MAL2 (pCR3.1/Myc-MAL2) in MCF-10A/Myc-MAL2 cells (from UniProt Q969L2 1-176)”, for which the binding entry in assay [5] is recorded as “binds”.

B1: D52, endogenous in MCF-10A/Myc-MAL2 cells (protein, UniProt P55327 1-224)
chain: MDCREMDLYEDYQSPFDFDAGVNKSYLYLSPSGNSSPPGSPTLQKFGLLRTDPVPEEGEDVAATISATETLSEEEQEELRRELAKVEEEIQTLSQVLAAKEKHLAEIKRKLGINSLQELKQNIAKGWQDVTATSAYKKTSETLSQAGQKASAAFSSVGSVITKKLEDVKNSPTFKSFEEKVENLKSKVGGTKPAGGDFGEVLNSAANASATTTEPLPEKTQESL
B1: the binding result in assay [3] is “binds”.
